Data as given in a collection of fitness landscapes (doi:10.1016/j.celrep.2020.107928).
Over roughly 81,000 sequences, “one-hybrid fitness for binding NBS DNA” has its median near -0.1; the highest 2% begin near 0.36. Some of the results follow.

B1: Caulobacter ParB omega fusion; a variant is named by its letters at X, in order, B8GW30 (parent)
chain: MESVVVGEPGMSEGRRGLGRGLSALLGEVDAAPAQAPGEQLGGSREAPIEILQRNPDQPRRTFREEDLEDLSNSIREKGVLQPILVRPSPDTAGEYQIVAGERAWRAAQRAGLKTVPIMVRELDDLAVLEIGIIENVQRADLNVLEEALSYKVLMEKFERTQENIAQTIGKSXSHVANXMRLLXLPDEVQSYLVSGELTAXHARAIAAAADPVALAKQIIEGGLSVRETEALARKAPNLSAGKSKGGRPPRVKDTDTQALESDLSSVLGLDVSIDHRGSTGTLTITYATLEQLDDLCNRLTRGI

Variants of: B1
Experiment: one-hybrid fitness for binding NBS DNA (the Noc-binding site; scaled: cognate 1, non-cognate 0); higher = stronger binding
Conditions: with NBS DNA site
Summary of the method: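 Pre- and post-selection plasmids were Illumina-sequenced, three replicate libraries were pooled, and any variant with under 10 reads was removed. The libraries were Caulobacter ParB with four specificity codons randomised, selected in E. coli USO through a HIS3 reporter whose site is 19 bp from the promoter. Cells grew 48 hours at 37°C on M9 without histidine, with 0.1 mM IPTG and 5 mM 3-AT. Fitness is the log change in variant-to-wild-type read ratio, rescaled against cognate and non-cognate.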

one-hybrid fitness for binding NBS DNA, ≤ 0.2:
YLSF
VRYQ
MRVN
GSAH
AWIT
PSIR
RMMM
QHGY
QAYF
WIES
EPTD
LEYC
PKCY
TYAG
PSHV
SLSC
NCPD
QKFW
RAVD
DIYP
RMVG
LPSC
HRGA
NTKW
LNMG
EHIS
RQQQ
NNGD
ESKC
ARLY
EVMC
ADQN
DRAQ
IWNR
RWWR
RDIT
NPKI
NSFV
KRGN
DPIT
KILS
TQCK
FLWG
RSSL
LWTR
EPVN
HTSL
YPDT
KTWD
KAGM
ACDR
QGLS
STQW
CYNK
LGQN
DFFV
VQDV
ADRS
LVYG
STTP
VYRT
VHFM
TAHW
CLSG
GAEW
PRQI
YSKC
MNSV
GVYI
HLWR
TYVK
PHHK
APVT
IPMT
HTNA
YSEM
QMCP
IYHS
QNTY
RAWM
HNEG
IVGL
VMYD
PDAS
LNCG
KHRG
RPDG
LQRT
SGNS
MQNP
RLGI
ARCE
NWRL
PGMN
RPMD
ESLD
CRCK
NNPG
CASG
ARPW
ACHS
TPNA
QAEN
MTVR
WAEV
QPCR
SVQS
MTSM
WRMR
CQHG
ITFK
KYND
EHPQ
PGEW
LPFK
WTCT
DRRD
SRVQ
AVIG
LQPK
SAAC
QELL
LDDV
LPPR
TTGM
RNCW
LRDA
EMAW
VAQG
TILS
AIPY
HVKK
NTWR
AYPG
SHIV
YHGP
ASIS
SQER
SVTL
TEHG
MYDS
QVAC
MQAR
YHKA
PCTE

one-hybrid fitness for binding NBS DNA, 0.24:
RTTH

one-hybrid fitness for binding NBS DNA, 0.242:
RFAR

one-hybrid fitness for binding NBS DNA, 0.25:
QQDA

one-hybrid fitness for binding NBS DNA, 0.256:
MVKR

one-hybrid fitness for binding NBS DNA, 0.248:
VQRR

one-hybrid fitness for binding NBS DNA, 0.298:
FGVN

one-hybrid fitness for binding NBS DNA, 0.269:
TRWT

one-hybrid fitness for binding NBS DNA, 0.219:
QIER
